Results published in the antibiotic and cytotoxicity screens of Wong et al. (2023).
The other results are listed elsewhere or left out.

Legend:
HSkMC = human skeletal muscle cells; experiment: cytotoxicity call (relative viability < 0.9); conditions: 10 µM
HepG2 = experiment: cytotoxicity call (relative viability < 0.9); conditions: 10 µM
S. aureus RN4220 = experiment: growth inhibition call (relative growth <= 0.2); conditions: 50 µM

C[C@H](CO)N1C[C@H](C)[C@H](CN(C)Cc2ccc(C(=O)O)cc2)Oc2ccc(NC(=O)CCCN(C)C)cc2C1=O
cytotoxicity call (HSkMC): inactive
cytotoxicity call (HepG2): inactive
growth inhibition call (S. aureus RN4220): inactive

C[C@H]1CN([C@@H](C)CO)S(=O)(=O)c2ccc(Br)cc2O[C@@H]1CN(C)S(=O)(=O)c1ccc(F)cc1
cytotoxicity call (HSkMC): inactive
cytotoxicity call (HepG2): inactive
growth inhibition call (S. aureus RN4220): inactive

CN(C)CCCNC(=O)[C@H]1[C@H](CO)[C@H]2Cn3c(ccc(-c4ccncc4)c3=O)[C@@H]1N2C(=O)C1CC1
cytotoxicity call (HSkMC): inactive
cytotoxicity call (HepG2): inactive
growth inhibition call (S. aureus RN4220): inactive

COCCN[C@H]1CS(=O)(=O)C[C@@H]1O
cytotoxicity call (HSkMC): inactive
cytotoxicity call (HepG2): inactive
growth inhibition call (S. aureus RN4220): inactive

CNC[C@H]1Oc2ccc(NC(=O)Cn3cnnn3)cc2C(=O)N([C@H](C)CO)C[C@@H]1C
cytotoxicity call (HSkMC): inactive
cytotoxicity call (HepG2): inactive
growth inhibition call (S. aureus RN4220): inactive

C[C@H]1c2cccc(O)c2C(=O)C2=C(O)[C@]3(O)C(=O)[C@@H](C(N)=O)C(=O)[C@@H](N(C)C)[C@@H]3[C@@H](O)[C@@H]21
cytotoxicity call (HSkMC): inactive
cytotoxicity call (HepG2): inactive
growth inhibition call (S. aureus RN4220): active

C[C@H](CO)N1C[C@H](C)[C@H](CN(C)Cc2ccc(Oc3ccccc3)cc2)Oc2ccc(NC(=O)c3ccncc3)cc2C1=O
cytotoxicity call (HSkMC): inactive
cytotoxicity call (HepG2): active
growth inhibition call (S. aureus RN4220): inactive

C[C@@H]1CCCCO[C@@H](CN(C)C(=O)Nc2ccc(C(F)(F)F)cc2)[C@@H](C)CN([C@H](C)CO)C(=O)c2cc(NC(=O)Cc3ccccc3)ccc2O1
cytotoxicity call (HSkMC): inactive
cytotoxicity call (HepG2): inactive
growth inhibition call (S. aureus RN4220): inactive

CO[C@H]1CN(C)C(=O)c2cc(NS(C)(=O)=O)ccc2OC[C@@H](C)N(C(=O)C2CCCCC2)C[C@@H]1C
cytotoxicity call (HSkMC): inactive
cytotoxicity call (HepG2): inactive
growth inhibition call (S. aureus RN4220): inactive

C[C@H](CO)N1C[C@H](C)[C@H](CN(C)C(=O)Nc2cccc3ccccc23)Oc2c(NC(=O)Nc3ccc(C(F)(F)F)cc3)cccc2C1=O
cytotoxicity call (HSkMC): inactive
cytotoxicity call (HepG2): active
growth inhibition call (S. aureus RN4220): inactive

C[C@H]1CN([C@@H](C)CO)C(=O)Cc2cc(NC(=O)Nc3ccc(C(F)(F)F)cc3)ccc2O[C@H]1CN(C)Cc1ccncc1
cytotoxicity call (HSkMC): inactive
cytotoxicity call (HepG2): active
growth inhibition call (S. aureus RN4220): inactive

COc1ccc(NC(=O)N(C)C[C@H]2OCCCC[C@@H](C)Oc3ccc(NC(=O)Nc4ccc(C(F)(F)F)cc4)cc3C(=O)N([C@@H](C)CO)C[C@H]2C)cc1
cytotoxicity call (HSkMC): inactive
cytotoxicity call (HepG2): inactive
growth inhibition call (S. aureus RN4220): inactive

C/N=C1/S[C@@H](CC(N)=O)C(=O)N1C
cytotoxicity call (HSkMC): inactive
cytotoxicity call (HepG2): inactive
growth inhibition call (S. aureus RN4220): inactive

COc1cccc(OC)c1O
cytotoxicity call (HSkMC): inactive
cytotoxicity call (HepG2): inactive
growth inhibition call (S. aureus RN4220): inactive

CC(C)Cc1ccc([C@@H](C)C(=O)Nc2ccc(Cl)cc2)cc1
cytotoxicity call (HSkMC): inactive
cytotoxicity call (HepG2): active
growth inhibition call (S. aureus RN4220): inactive

[N-]=[N+]=Nc1ccccc1[C@H]1OC(c2ccc(OCCCO)cc2)=N[C@@]1(Cc1ccccc1)C(=O)NC[C@@H](O)CO
cytotoxicity call (HSkMC): inactive
cytotoxicity call (HepG2): inactive
growth inhibition call (S. aureus RN4220): inactive

COc1ccc(S(=O)(=O)Nc2ccc3c(c2)C(=O)N([C@@H](C)CO)C[C@H](C)[C@H](CN(C)C(=O)NC(C)C)O3)cc1
cytotoxicity call (HSkMC): inactive
cytotoxicity call (HepG2): inactive
growth inhibition call (S. aureus RN4220): inactive

COc1ccccc1NC(=O)N(C)C[C@H]1Oc2ncc(Br)cc2C(=O)N([C@@H](C)CO)C[C@@H]1C
cytotoxicity call (HSkMC): inactive
cytotoxicity call (HepG2): inactive
growth inhibition call (S. aureus RN4220): inactive

C[C@H](CO)N1C[C@H](C)[C@@H](CN(C)S(C)(=O)=O)Oc2c(NC(=O)Nc3ccccc3)cccc2C1=O
cytotoxicity call (HSkMC): inactive
cytotoxicity call (HepG2): inactive
growth inhibition call (S. aureus RN4220): inactive

O=C(C1=C[C@H](c2coc3ccccc3c2=O)C[C@H](OCCCCO)O1)N1CCN(Cc2ccc3c(c2)OCO3)CC1
cytotoxicity call (HSkMC): inactive
cytotoxicity call (HepG2): inactive
growth inhibition call (S. aureus RN4220): inactive

CO[C@H]1CN(C)C(=O)c2ccc(NS(C)(=O)=O)cc2OC[C@@H](C)N(S(C)(=O)=O)C[C@@H]1C
cytotoxicity call (HSkMC): inactive
cytotoxicity call (HepG2): inactive
growth inhibition call (S. aureus RN4220): inactive

COc1ccc(S(=O)(=O)N(C)C[C@H]2Oc3ccc(NS(=O)(=O)c4ccc(C)cc4)cc3C(=O)N([C@@H](C)CO)C[C@@H]2C)cc1
cytotoxicity call (HSkMC): inactive
cytotoxicity call (HepG2): inactive
growth inhibition call (S. aureus RN4220): inactive

CCOc1nc2ccccc2c(=O)n1CCO
cytotoxicity call (HSkMC): inactive
cytotoxicity call (HepG2): inactive
growth inhibition call (S. aureus RN4220): inactive

C[C@@H]1CN([C@@H](C)CO)C(=O)Cc2cc(NC(=O)Nc3cccc4ccccc34)ccc2O[C@@H]1CN(C)C(=O)Nc1ccccc1
cytotoxicity call (HSkMC): inactive
cytotoxicity call (HepG2): inactive
growth inhibition call (S. aureus RN4220): inactive

Cc1ccc2c(c1)/C(=C/c1ccncc1)c1cc3ccccc3nc1-2
cytotoxicity call (HSkMC): inactive
cytotoxicity call (HepG2): active
growth inhibition call (S. aureus RN4220): inactive

COc1ccc(S(=O)(=O)Nc2ccc3c(c2)C(=O)N([C@@H](C)CO)C[C@H](C)[C@@H](CN(C)C(=O)NC2CCCCC2)OCCCC[C@@H](C)O3)cc1
cytotoxicity call (HSkMC): inactive
cytotoxicity call (HepG2): inactive
growth inhibition call (S. aureus RN4220): inactive

OC[C@H]1O[C@H](n2cnc3cncnc32)[C@@H](O)[C@@H]1O
cytotoxicity call (HSkMC): active
cytotoxicity call (HepG2): active
growth inhibition call (S. aureus RN4220): inactive

CCS(=O)(=O)N1C[C@]2(CCN(CC2)Cc2cccc(c2)OC)c2c(n(c3cc(ccc23)OC)C)[C@@H]1CO
cytotoxicity call (HSkMC): inactive
cytotoxicity call (HepG2): inactive
growth inhibition call (S. aureus RN4220): inactive

Cc1ccc(S(=O)(=O)Nc2ccc3c(c2)C(=O)N([C@@H](C)CO)C[C@@H](C)[C@@H](CN(C)Cc2ccc(C(=O)O)cc2)OCCCC[C@H](C)O3)cc1
cytotoxicity call (HSkMC): inactive
cytotoxicity call (HepG2): inactive
growth inhibition call (S. aureus RN4220): inactive
